± gives the standard deviation of the averaged measurements. This is one part of the list.
The sequences below were run on PfAP2-I AP2 domain 3 (GST-tagged) (assay: gcPBM binding intensity (ln(normalized median fluorescence intensity)); higher = stronger DNA binding).
In short: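 GST-fused DNA-binding domains of P. falciparum, expressed in E. coli, were applied at about 25 μg on average for 1 h to an Agilent 4 × 180k array of primer-extended double-stranded 36-bp intergenic genomic probes and negative controls. Binding intensity is the highest Masliner-normalised natural-log median intensity across replicate spots of either probe orientation, measured with Alexa488 anti-GST antibody and a 488 nm scan.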

Sequence	gcPBM binding intensity (ln)
TTATATTTCAATTAAACATGCATTTTTGTGTAGCAC [TGCATGCA_site214]	8.04 ± 0.76
TCATATAGATTATACACACACATATATAGATATATA [CACACA_site6587]	7.79 ± 0.4
TTATATATTTTATTATTTATAATCTTTTTTTTATTT [CACACA_negctrl_site112]	7.36 ± 0.49
CAAAAGCGATACGGCACACATTTCCTGTTTAAATGA [CACACA_site5519]	8.93 ± 0.11
TTAATTTTTAGAAGAACACACACATATATATTATGA [CACACA_site7969]	7.49 ± 0.63
AAATTGATTATAAATTGTACAAGAACATACAACCTT [XGTACX_site5986]	7.53 ± 0.67
TTTATTTATTATTAAAGTACTAAATCATATAATTAT [XGTACX_site5727]	7.5 ± 0.45
AAATTAAAAAAATAATGTACATGTATTTATTATGTA [XGTACX_site2419]	7.66 ± 0.35
TTTCTGTGTTTTGGTTGTACACACGCTACATTATAT [XGTACX_site5669]	8.53 ± 0.67
TTGTTTTTTTTTTCTATAAGCATAAAAATGATATAA [XGTACX_negctrl_site356]	7.66 ± 0.25
TAAAACAATACTTTGTGCTTCTCTGGTTTTTTTTTT [GTGCAC_negctrl_site284]	7.62 ± 0.76
GCTTTTAAAATAATTGGTACACATGTATAAATTCAA [XGTACX_site2327]	7.89 ± 0.57
AGTATTCACTTAATATGTACATATTTATTATAAGAG [XGTACX_site3434]	7.99 ± 0.28
TTTTATTTCTTTGCACCATTTTAAATACAAACAAAT [CACACA_negctrl_site1553]	11.1 ± 0.79
TTTTGCCTTTCTACTTGTACTTAAAATATTATAATT [XGTACX_site5483]	8.37 ± 0.66
TGGTATATAAAACACACACACATATGTATTTATATA [CACACA_site4665]	7.79 ± 0.53
ACTCCATAATATTGATGTACTATAATGCATTTATTT [XGTACX_site5562]	8.15 ± 0.83
TTATAGAATTTATTTACACACAAACATTTATACTTT [CACACA_site7592]	7.88 ± 0.39
TATTTATTTTCATATAGTACTTTTTTCAGGCATATA [XGTACX_site6691]	7.79 ± 0.53

Sequence	gcPBM binding intensity (ln)
TTCAAAAGCCGGATAACATGCAGTAGTAGAACAAAC [TGCATGCA_site413]	8.67 ± 1.1
TTTATTTATGTTGAAACATGCAAAAAGTTATTTATA [TGCATGCA_site716]	7.4 ± 0.49
ATATGAACATTTACATGTACATGTAAATGTAACACT [XGTACX_site4574]	7.9 ± 0.49
GAAAATATGTAATAGTGTACACATATATATGTATAT [XGTACX_site306]	8.01 ± 0.59
TGCTCATTCCTGTCATGTACATATTATATATATATA [XGTACX_site6890]	9.16 ± 0.4
CACAAAAAGAAACACACACACATATATATATATATA [CACACA_site999]	9.56 ± 0.64
ATTCTAAATAATAAGAGTACAAATAATATGGAGAAG [XGTACX_site5209]	8.21 ± 0.43
TTCTAACTTTTAAACACACAAATATAAATAAGTATA [CACACA_site7473]	7.67 ± 0.47
AAGAATAATAATAAATGTACACAATATTATATATAT [XGTACX_site5525]	8.41 ± 0.46
AAATGAACAAGTGGCACACACACATTATAACTAATT [CACACA_site9048]	8.25 ± 0.59
GAACGTATCATGTGTACACACAAATTGTTTTTTTTT [CACACA_site2020]	7.93 ± 0.83
TGCAAGCTTATATAGGTGCACATGTATACGTGTTCA	9.7 ± 0.33
TATGTAGTCACAAGGTGTACACTTTAACAAATTATG [XGTACX_site8792]	8.23 ± 0.52
TATATACACAAACACACACACACATACACCCACATA [CACACA_site8504]	8.27 ± 0.071
TATTAAAATTAAAAAAAAAAAAAAAAGCAATAAAAA [XGTACX_negctrl_site426]	7.54 ± 0.63
GTGCATATCTGATATACACACAATAAAATAGTATGT [CACACA_site7203]	9.37 ± 0.4
AATTATATATTTGAGAGTACATATGTAATGTTTATA [XGTACX_site6970]	7.75 ± 0.35
TATGATACATAAATATGTACGTATAATATATATTTA [XGTACX_site7002]	7.8 ± 0.23
CATATATTATTTATACGTACTAATAAAATAAATCAA [XGTACX_site1030]	7.92 ± 0.042

Sequence	gcPBM binding intensity (ln)
CCCGTAAATTATGAGTGTACGTTATTTTTTAAAATG [XGTACX_site3946]	8.29 ± 0.84
ACATATACATATATATGTACATAAATATATATATAT [XGTACX_site8630]	8.93 ± 0.39
ATATATATATATTGCACACACAATTATTATTATTAT [CACACA_site2299]	10.3 ± 0.3
ATGCTTTTTAAATGATTGCACTAGATTGTAATATGT [GTGCAC_site9666]	9.41 ± 0.11
TATATATATATTTTAACACACACATATATATATTTA [CACACA_site8892]	9.05 ± 0.2
TGTATGAAATATATTACACACATATAAAATCTATAT [CACACA_site6514]	7.65 ± 0.42
TTGATGTTGGTAGGATGTACGGTACCGGTAAAGTTT [XGTACX_site7705]	8.06 ± 0.79
TTTTTAATTTTTTGTTGTACATATAATATATTATTA [XGTACX_site4903]	7.95 ± 0.47
AAGCTTCATTAATATACACACATATATGCGTATATT [CACACA_site3695]	7.67 ± 0.49
AAATTTGAAGAATATTGTACGCATAATAATTAAATA [XGTACX_site4300]	7.95 ± 0.42
TATATAATTATAAGAACACACATATATATATATATA [CACACA_site2472]	9.51 ± 0.51
AATAATACACAATTTTGTACGTATTTAAAATATATT [XGTACX_site45]	7.83 ± 0.28
TAAAATATATAATAATGTACATATTTTTATTTAGGA [XGTACX_site4987]	7.62 ± 0.22
TATTTATGAGAAATAGTGCAAAGATATGATCTTTAA	9.5 ± 0.21
AATTAAAAACATTTCACACATAAAAATGAAATATAT [CACACA_site5199]	7.62 ± 0.63
AAAAATTACCTGACTTGTACATAATTTAAGAACAAT [XGTACX_site6233]	7.58 ± 0.59
ATAATATATTTATAATGTACATAAGAACAAATTAAA [XGTACX_site1745]	7.83 ± 0.38
GGTATATTAAAATAGGTGCATAAAACTAAGAGAAAA [GTGCAC_site9781]	11.3 ± 0.54
ACGTTTGATACACATAAAGTTTTCCTTTGAATGTAC [CACACA_negctrl_site106]	7.78 ± 0.61

From the supplement of paper PMC11417369
